# Results from the supplement of paper PMC3334620.
# The full ranking holds about 33,000 sequences; the median of “E-score (-0.5 to 0.5)” is about -0.012, and the highest 2% start at about 0.29. The list shows a part of the results.
# Molecular target: T1, Ybr033w (UniProt P38073)
# T1 sequence: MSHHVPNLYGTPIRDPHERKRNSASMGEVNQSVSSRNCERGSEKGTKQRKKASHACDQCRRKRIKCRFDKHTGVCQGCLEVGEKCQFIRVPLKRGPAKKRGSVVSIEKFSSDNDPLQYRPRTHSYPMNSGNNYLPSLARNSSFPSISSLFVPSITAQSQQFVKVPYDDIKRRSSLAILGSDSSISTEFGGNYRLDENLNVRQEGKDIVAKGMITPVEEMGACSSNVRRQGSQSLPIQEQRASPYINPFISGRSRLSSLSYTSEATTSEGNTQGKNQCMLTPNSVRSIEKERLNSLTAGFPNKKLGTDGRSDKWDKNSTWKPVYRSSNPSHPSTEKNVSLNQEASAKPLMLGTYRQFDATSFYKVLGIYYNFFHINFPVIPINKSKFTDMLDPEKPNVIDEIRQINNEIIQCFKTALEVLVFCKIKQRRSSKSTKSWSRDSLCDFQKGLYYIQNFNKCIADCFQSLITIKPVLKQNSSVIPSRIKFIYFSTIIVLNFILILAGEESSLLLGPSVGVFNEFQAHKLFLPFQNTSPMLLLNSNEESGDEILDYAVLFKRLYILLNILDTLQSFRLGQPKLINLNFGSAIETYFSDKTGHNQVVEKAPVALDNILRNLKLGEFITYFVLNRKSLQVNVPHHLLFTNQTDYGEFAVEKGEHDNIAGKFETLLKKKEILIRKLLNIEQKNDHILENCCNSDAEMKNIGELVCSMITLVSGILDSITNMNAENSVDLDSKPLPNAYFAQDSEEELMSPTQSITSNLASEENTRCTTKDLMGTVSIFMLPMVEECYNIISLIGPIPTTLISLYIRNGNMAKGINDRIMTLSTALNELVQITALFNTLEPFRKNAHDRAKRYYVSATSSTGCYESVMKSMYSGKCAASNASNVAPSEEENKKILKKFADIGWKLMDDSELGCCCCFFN
# Experiment: PBM E-score (8-mer binding enrichment) (E-score (-0.5 to 0.5)); higher = stronger / more preferred TF binding; most listed sequences are background and not binding sites
# Details: protein concentration: 200 nM; construct: GST-full length
# In short: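 Yeast transcription factors, full-length or as DNA-binding domains, were expressed with a GST tag using PURExpress in vitro transcription/translation. At about 100-200 nM they were applied to universal all-10-mer Agilent arrays, double-stranded by primer extension on fresh or once-stripped slides. Fluorescent anti-GST detected bound protein, and masliner normalised the scans. E-scores for ungapped eight-base words, pooled with reverse complements, came from the Universal PBM Analysis Suite.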
row,Sequence,PBM E-score
1,ATATGCAA,0.0194
2,AACTATTA,0.213
3,CTGGTCCC,-0.283
4,CCAACGAG,-0.303
5,ACTTAATG,0.151
6,AGCGTTCC,-0.00963
7,CTATTGAG,-0.0501
8,GATTAATC,0.435
9,CATCCTCG,0.0128
10,CCCGGGTC,-0.196
11,AGCGCGGC,-0.204
12,CGGGTAAA,0.208
13,CTACTCTA,0.212
14,ATTTGGTA,0.27
15,GATCTGAC,-0.16
16,CGATTAAA,0.174
17,ATTTTTGA,0.204
18,AAGTGGTA,0.0726
19,CCTCACCA,-0.0744
20,AAGAAATG,0.106
21,AGGGCTCG,-0.137
22,ACCGAGGG,-0.379

row,Sequence,PBM E-score
1,ACGGACAC,-0.119
2,CTCCTCGA,-0.126
3,CTTCGCGC,0.087
4,CAACACGG,-0.0425
5,CCAACTAC,0.08
6,TATTAATA,0.101
7,CCATCGAG,0.103
8,CCGCTCAG,-0.111
9,AAGATTCA,0.112
10,AAGACTAT,0.116
11,AAGGGACT,-0.0262
12,CAGCCTAA,-0.134
13,GACACAGA,-0.0692
14,GTCTCCAC,-0.0474
15,AAGGCAGA,-0.0306
16,CTCTGGTC,0.0477
17,CGATCCTC,-0.118
18,TCCATAAA,0.0621
19,CCCTATAA,-0.0973
20,ACGTACTC,-0.0193
21,AGATAATC,0.306
22,CAGCGATA,0.00335

row,Sequence,PBM E-score
1,GATCCAGA,0.149
2,CCACGCCG,-0.189
3,AATGGTTA,0.0304
4,ATCGAGAC,-0.0799
5,ATCGTGCA,-0.0327
6,AGCCATAT,0.0848
7,CTGGACTA,-0.102
8,CAGGTTCA,0.026
9,GCGATCTA,-0.0272
10,CGTGTGAA,-0.0687
11,CCAAGGAG,0.0969
12,GACACCTA,-0.123
13,GTTCATAA,0.199
14,AATCTACC,0.0877
15,GTCTGTTA,0.0183
16,ACTGTCCG,-0.166
17,TGCGTACA,-0.0421
18,CGCTGAGA,-0.112
19,TACAACAA,0.154
20,GCCAGAAA,0.126
21,AACCTTAC,0.257
22,CTGTGGTA,0.0549

row,Sequence,PBM E-score
1,CAGCAGTC,-0.0918
2,CCATATAC,0.0859
3,ATTGATAG,0.257
4,AGGGCGGC,-0.353
5,ACACTTCT,-0.131
6,CTATGAAA,0.109
7,ATATAACA,0.272
8,ATGCGTTG,-0.0395
9,ACTCTCTC,-0.0127
10,GACTTAAA,0.0498
11,AGTATACA,0.185
12,ACTGTTTG,0.0601
13,ACTTTGGA,0.156
14,CTGGGAAC,0.0276
15,GCATCCAC,0.0709
16,GGTTTAAC,0.00357
17,GAGTGCGA,-0.158
18,CAACATAC,0.0539
19,ACTTCACA,0.204
20,CCCAACGC,-0.15
